# Some of the results follow. Viral Rep nickase domains cut single-stranded DNA in vitro for 1 h at 37 °C with 3 µM enzyme; only the middle of the 90-letter strands is printed. A value is the log2 ratio of uncut reads to the pool without enzyme; the lower, the more was cut; hits are not called. Counts are relative to all reads; where an enzyme cuts many sequences, the uncut ones exceed 0.
# System: T1, Rep nickase domain of tomato golden mosaic virus
# T1 sequence (residues 1-124, tag not shown): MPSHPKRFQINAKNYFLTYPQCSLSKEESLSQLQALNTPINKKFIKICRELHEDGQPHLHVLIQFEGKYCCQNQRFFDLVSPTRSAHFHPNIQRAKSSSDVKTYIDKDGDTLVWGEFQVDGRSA
# Test: uncleaved DNA left, log2 of reads against the no-enzyme library (log2 ratio); higher = less cleavage (more negative = more Rep cleavage of the k-mer); sequences stand for … in CTCGTCCG…ACCGGAGA
# Description: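 A pool of 90-nt single-stranded DNAs with seven random bases just before the constant AC of the nick site (name = the seven bases) was cut by 3 µM recombinant His6-SUMO-tagged Rep nickase domain (300 nM DNA, 50 mM HEPES pH 8.0, 50 mM NaCl, 1 mM MnCl2, 1 h, 37 °C, three replicates). Uncut DNA was amplified and sequenced.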
row,Sequence,uncleaved DNA left (log2)
1,ACGGTTA,0.145
2,TCAGCGT,-0.0696
3,GCTAACA,-0.0504
4,GCGCCCA,-0.00604
5,GATCTAA,0.0119
6,AGGTAAT,0.0247
7,GCGGTCT,0.0267
8,GTTCACC,-0.0609
9,TGTCTGA,-0.0305
10,CCAGGTG,0.0758
11,AGCCTCA,-0.000847
12,GGCCAAC,0.0593
13,CTCTTAC,-0.0885
14,ATATCCC,-0.0789
15,GTTTATT,0.0238
16,CACCTGA,0.0295
17,CCGCCAT,-0.089
18,TGCAGCT,-0.041
19,TGCCTGC,0.107
20,AGTAGCG,-0.0267

row,Sequence,uncleaved DNA left (log2)
1,GTCCACG,0.0339
2,GAGCTTC,-0.228
3,GAGAGAG,0.0438
4,CCCCCAT,0.0487
5,AGGTATG,0.112
6,CCCACCG,-0.0156
7,TGCAAGT,0.0337
8,GTGAGGG,0.0665
9,AATGTGT,-0.0616
10,TCTGCTT,-0.0755
11,CTAATGA,-0.00377
12,TTGACAT,0.0294
13,GGAATAG,0.0524
14,TCTTGAC,-0.152
15,TCCTGGC,-0.251
16,AACTCCG,-0.0423
17,TGATTCC,0.0186
18,CACAGTA,-0.019
19,TGCGAGT,-0.0643
20,ACGGAGT,0.0239
